Results reported in PubChem BioAssay AID588342 (National Center for Advancing Translational Sciences (NCATS), 2011).
Out of some 360,000 compounds screened, about 25,000 (6.9%) were called active. Inconclusive means that the source gave no clear call. Such entries were picked first, then a sample of the others. Calls come from the whole dose curve; as a rule, active = well fitted inhibition curve with a large enough effect; inconclusive = small, poorly fitted or top-dose-only effect; inactive = flat fitted curve, though single readings scatter. Where the call is inconclusive, the potency comes from a doubtful curve fit.

Target: Luciferin 4-monooxygenase (Photinus pyralis) (UniProt P08659)
UniProt P08659, sequence (P08659 whole entry, looked up): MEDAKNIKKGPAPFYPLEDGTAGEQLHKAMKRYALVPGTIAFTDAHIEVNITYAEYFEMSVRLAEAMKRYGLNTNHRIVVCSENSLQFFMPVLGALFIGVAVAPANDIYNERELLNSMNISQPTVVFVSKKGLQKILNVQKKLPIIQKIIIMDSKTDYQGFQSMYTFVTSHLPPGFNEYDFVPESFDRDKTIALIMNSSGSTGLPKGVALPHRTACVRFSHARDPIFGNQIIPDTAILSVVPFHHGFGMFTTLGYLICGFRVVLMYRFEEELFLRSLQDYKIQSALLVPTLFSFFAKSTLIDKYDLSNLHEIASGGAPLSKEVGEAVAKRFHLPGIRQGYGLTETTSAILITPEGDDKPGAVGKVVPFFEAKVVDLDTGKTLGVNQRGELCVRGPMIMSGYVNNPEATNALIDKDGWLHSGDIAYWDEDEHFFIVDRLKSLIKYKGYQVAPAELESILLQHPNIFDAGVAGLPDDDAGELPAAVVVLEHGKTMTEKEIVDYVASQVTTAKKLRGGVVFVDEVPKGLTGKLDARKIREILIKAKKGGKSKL
Assay: qHTS profiling assay for firefly luciferase inhibitor/activator using purifed enzyme and Km concentrations of substrates (counterscreen for miR-21 project); note: nearly all actives have a fitted effect of over 55% in size;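 for activity change, negative = inhibition: plate controls were vehicle for no effect and reference inhibitor for full effect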
Details: purified FLuc, luminescence inhibition; series mostly up to 57.5 µM; activity change, negative = inhibition: at the top concentration
Outline: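 Purified P. pyralis luciferase, 10 nM final, with Km-level 10 uM D-luciferin and 10 uM ATP in 50 mM Tris acetate pH 7.5, 10 mM Mg acetate, 0.01% Tween-20, 0.05% BSA; 6-point qHTS titration about 60 µM downward; luminescence read.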
Potency is the fitted concentration of half-maximal effect; tags give direction and shape of the fitted curve.

SMILES	Potency	activity change, negative = inhibition
COc1ccc(NC(=O)c2cccs2)cc1O	active: 15.1 µM	–
O=C(CNC(=O)c1ccc(-c2ccccc2)cc1)Nc1ccc(S(=O)(=O)Nc2ncccn2)cc1	active: 16.9 µM	–
O=C(O)COc1ccc(Br)cc1/C=N\Nc1ccccn1	inconclusive: 19 µM [inhibitor, partial curve]	–
CCCCOC(=O)c1ccc(NC(=O)/C=C/c2cccs2)cc1	inconclusive: 26.9 µM [inhibitor, single point]	–
C=CCN=C1N[C@@H](c2ccc(Br)cc2)C(C(=O)OC)=C(C)N1Cc1ccccc1	–	inactive: 2.12%
Cc1cc(/C=C2/NC(=O)N(c3ccccc3)C2=O)c(C)n1-c1cccnc1	active: 3.38 µM	–
CC1CCN(C(=O)COC(=O)c2ccc(Br)o2)CC1	active: 23.9 µM	–
COc1cc(-c2nnc(SCCOc3cc(C)cc(C)c3)o2)cc(OC)c1OC	active: 15.1 µM	–
Cc1ccc2cn[nH]c2c1NC(N)=S	inconclusive: 23.9 µM [inhibitor, single point]	–
Cc1ccc(C(=S)N2CCN(Cc3ccccc3)CC2)s1	inconclusive: 37.9 µM [inhibitor, partial curve, poor fit]	–
Fc1ccc(-n2c(-c3ccc4c(c3)OCO4)n[nH]c2=S)cc1Cl	inconclusive: 30.1 µM [inhibitor, single point]	–
CC(=O)Nc1nc(C)c(-c2csc(Nc3cccc(C(C)=O)c3)n2)s1	inconclusive: 19 µM [inhibitor, partial curve]	–
CC(OC(=O)[C@H](C)NC(=O)c1ccccc1Cl)C(=O)NCc1ccc2c(c1)OCO2 (stereo partly specified)	–	inactive: 0.361%
Cc1ccccc1NC(=S)Nc1ccc2[nH]c(=O)[nH]c2c1	–	inactive: -1.44%
CN(CC(=O)Nc1cccc(F)c1)C(=O)c1cn(-c2ccccc2)nc1-c1ccc(F)cc1	inconclusive: 19 µM [inhibitor, partial curve]	–
Cc1ccc2nc(SCc3nc4ccccc4c(=O)[nH]3)[nH]c2c1	active: 9.53 µM	–
NC(=O)COC(=O)c1sc2cc(F)ccc2c1Cl	inconclusive: 26.9 µM [inhibitor, partial curve, poor fit]	–
O=C(COc1ccc(Cl)cc1Cl)NCCCNC(=O)c1cnccn1	inconclusive: 16.9 µM [inhibitor, partial curve]	–
CC(=O)c1ccc(Nc2nc(N3CCOCC3)nc(N3CCOCC3)n2)cc1	inconclusive: 26.9 µM [inhibitor, partial curve, poor fit]	–
Cc1onc(-c2ccccc2Cl)c1C(=O)Nc1ccccc1O	–	inactive: -0.469%
Cc1ccccc1NCCC(=O)Nc1ccc(Cl)cc1	inconclusive: 30.1 µM [inhibitor, single point]	–
